This passage reports Potency results from PubChem BioAssay AID1347120 (National Center for Advancing Translational Sciences (NCATS), 2019).

The structures appear in SMILES notation. Hit rate of the full screen: of about 390,000 compounds, about 930 (0.24%) were called active. Inconclusive results (about 5%) are left out. Calls come from the whole dose curve; as a rule, active = well fitted activation curve with a large enough effect; inconclusive = small, poorly fitted or top-dose-only effect; inactive = no such curve, though single readings can be large or run the other way. A structure can be active in one record and inactive in another. Not every entry of the source has a single result; some have several. The other results are left out here. There may be further records. Values that stand side by side are repeats across runs, samples, wells, individuals or studies. A tag in brackets gives the origin of a value. A, B and so on number the origins entry by entry.
Potency is the fitted concentration of half-maximal effect.

The nature of the assay: qHTS for Suppressors of FUS Proteinopathy: Primary screen using FUS-linked yeast assay. Note: nearly all actives have a fitted effect of over 55% in size. The conditions noted are these: S. cerevisiae FUS-expressing, OD600, 24 h; Potency: growth rescue; series mostly up to 76.6 µM. The text has this: Several widespread neurodegenerative diseases, including Alzheimer disease, Huntington disease, Frontotemporal Lobar Degeneration (FTLD) and Amyotrophic Lateral Sclerosis (ALS), share a common pathological feature, namely accumulation of specific protein aggregates in diseased tissue. These diseases which is associated with protein misfolding (proteinopathies) have become increasingly problematic as the population ages and life expectancies are extended. Most proteinopathies are currently incurable, a situation confounded by the fact that the basis of neurodegeneration is generally poorly understood. There exists urgent and significant need to find therapeutics that can inhibit the toxicity associated with protein aggregation. […]
For this project, a yeast model of the FUS proteinopathies (a spectrum of neurodegenerative diseases that include ALS and a subtype of FTLD) was generated and employed. […] This model was validated to be suitable for quantitative HTS (qHTS) use for finding genetic or chemical factors that restore growth. […]
Four hundred fifty microliter of cultured yeast (in 20mL rich medium) provided by Dr. Shewmaker lab was incubated at 30C at 99% humidity for 3hr. […] Absorbance at 600nm was then read using the PerkinElmer ViewLux plate reader.
On the technique in general: In qHTS, concentration-response curves come from the screen itself.
For the compound `COc1ccc(S(=O)(=O)Nc2ccc(O)c(Sc3nc4ccccc4s3)c2)cc1`, the Potency entry was “inactive [sample A] and active: 25.1 µM [sample B]”.
